# Among all 300,000 compounds or so, about 1,200 (0.4%) were called active. Inconclusive means that the source gave no clear call. Such entries were picked first, then a sample of the others. The call rests on the fitted dose curve; in most records, active means well fitted inhibition curve with a large enough effect; inconclusive means small, poorly fitted or top-dose-only effect, or another doubt; inactive means no such curve, though single readings can be large or run the other way. Potencies of inconclusive entries are doubtful fits and often do not repeat.
# Target: Lysosomal alpha-glucosidase (Homo sapiens) (UniProt P10253)
# Assay: qHTS Assay for Inhibitors and Activators of Human alpha-Glucosidase Cleavage of Glycogen;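 on activity change, negative = inhibition: 0% = full enzyme reaction and -100% = no-enzyme basal signal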
# Conditions: recombinant GAA, glycogen substrate, Amplex Red glucose oxidase fluorescence; activity change, negative = inhibition: at 76.4 µM (top of the series) unless noted
# Procedure, shortened: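 Recombinant human alpha-glucosidase (4 nM final) hydrolysed bovine liver glycogen (30 ug) for 40 min at 37 C in pH 5.0 citrate/phosphate with 0.01% Tween-20. Released glucose detected by glucose oxidase/Amplex Red, Ex 573/Em 610 nm. Compounds up to 77 uM; AC50 from Hill fits.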
# Potency means the concentration at half of the fitted maximal effect.
SMILES,Potency,"activity change, negative = inhibition"
COc1ccc(NCc2nnc(SCC(=O)c3ccc(OC)cc3)n2C)cc1,active: 12.5 µM,–
Cc1ccc(C(C(=O)NC(C)(C)C)N(C(=O)CCC(=O)Nc2ccccn2)c2ccccc2F)cc1 (centres undefined),inactive,–
Cn1cccc1/C=N/n1c(-c2ccc(C(C)(C)C)cc2)n[nH]c1=S,"inconclusive: 25.1 µM [inhibitor, partial curve, poor fit]",–
CN(C)c1ccc(N/C=C/C(=O)c2ccc(F)cc2)cc1,"inconclusive: 7.03 µM [inhibitor, full curve]",–
COc1ccc(/C=N/Nc2nonc2N)cc1,"inconclusive: 14 µM [inhibitor, partial curve]",–
COc1ccc(NC(=O)C(NC(=O)C2CCC(C)CC2)C(C)C)cc1 (centres undefined),inactive,–
CCOC(=O)COc1cc(Br)c(/C=N/Nc2ccccc2)cc1OC,"inconclusive: 31.6 µM [inhibitor, single point]",–
CCCCNC(=S)NNC(=O)c1nn(C)cc1Cl,"inconclusive: 14.1 µM [inhibitor, partial curve]",–
CN1CCN(C(=O)Cn2c(-c3cccs3)cc3ccccc32)CC1,inactive,–
CCCc1ccc(Oc2cn[nH]c2-c2ccc(O)c(C)c2O)cc1,"inconclusive: 25.1 µM [inhibitor, partial curve]",–
COc1ccc(NC2=C3CC(C)CC=C3N(c3ccc(OC)cc3)C2=O)cc1 (centres undefined),"inconclusive: 28.2 µM [inhibitor, single point]",–
CC1(C)CC(=O)C2=C(C1)NC1=C(C(=O)c3ccccc31)C2c1cc([N+](=O)[O-])ccc1O (centres undefined),inactive,–
N#CC1CC(c2ccccc2)Nc2cc(Cl)ccc2N1 (centres undefined),"inconclusive: 31.4 µM [activator, single point]",–
COc1ccc(CNC(=O)CCc2c(C)nc3ncnn3c2C)cc1,–,inconclusive: 48.3% [activator]
CCOC(=O)c1ccc(CS(=O)c2ccc(Cl)cc2)o1 (centres undefined),"inconclusive: 22.2 µM [inhibitor, partial curve]",–
CC(C)C1=NN(C(=O)c2ccccc2)C(O)(C(C)(C)C)C1 (centres undefined),"inconclusive: 20 µM [inhibitor, partial curve]",–
COc1ccc(C(=O)N(Cc2ccc(N(C)C)cc2)CC2CCCO2)cc1 (centres undefined),"inconclusive: 50.1 µM [inhibitor, partial curve, poor fit]",–
Cn1cccc1/C=N/n1c(-c2ccccc2)n[nH]c1=S,"inconclusive: 28.2 µM [inhibitor, single point]",–
COc1ccc(-c2nc(C#N)c(NC(C)c3ccccc3)o2)cc1OC (centres undefined),"inconclusive: 28.2 µM [inhibitor, single point]",–
CCc1ccccc1NC(=O)c1sc(-n2nc(C)c(Cc3ccccc3)c2C)nc1C,inactive,–
O=C(CCS(=O)(=O)c1cccc2nsnc12)N1CCN(c2ccccc2F)CC1,"inconclusive: 39.5 µM [inhibitor, single point]",–
Oc1ccc2ccccc2c1C=Nc1ccccc1-c1nc2ccccc2[nH]1,inactive,–
CCNc1c(N)c(=O)oc2ccccc12,"inconclusive: 31.6 µM [inhibitor, single point]",–

SMILES,Potency,"activity change, negative = inhibition"
C/C(CC(=O)Nc1ccc(N(C)C)cc1)=N\NC(=O)Cc1csc(N)n1,"inconclusive: 50.1 µM [inhibitor, single point]",–
Fc1ccc(NC(=S)NCc2ccccc2)cc1,inactive,–
O=C(O)c1ccccc1Sc1ccccc1S(=O)(=O)NC1CCCCC1,inactive,–
NC(=S)NNC(=S)Nc1ccccc1,"inconclusive: 15.7 µM [inhibitor, partial curve]",–
CN1c2ccccc2C(C)(C)C12C=Cc1cc(O)ccc1O2 (centres undefined),active: 12.5 µM,–
Nc1ccccc1Nc1c(F)c(F)nc(F)c1Cl,"inconclusive: 20 µM [inhibitor, partial curve]",–
NNc1nc(-c2ccccc2)c2ccccc2n1,"inconclusive: 39.8 µM [inhibitor, partial curve]",–
Cc1ccc(S(=O)(=O)N/N=C/c2ccc(O)c(O)c2)cc1[N+](=O)[O-],"inconclusive: 3.55 µM [inhibitor, full curve]",–
CCN(CC)c1ccc(C=Nc2ccc(N(C)C)cc2)c(O)c1,"inconclusive: 35.5 µM [inhibitor, partial curve]",–
CC(C)Oc1ccc(CNC(=O)c2ccc(NC(=O)N3CC(C)Sc4ccccc43)cc2)cc1 (centres undefined),inactive,–
CC(=O)Oc1ccc2c(c1)Oc1cc(OC(C)=O)ccc1C21OC(=O)c2ccccc21,inactive,–
COc1cc(CN2CCC(C(=O)N3CCN(c4ccccc4F)CC3)CC2)cc(OC)c1O,"inconclusive: 22.4 µM [inhibitor, partial curve]",–
O=C(/C=C/c1ccc(O)c(O)c1)OC1C(O)CC(OC(=O)/C=C/c2ccc(O)c(O)c2)(C(=O)O)CC1O (centres undefined),active: 1.76 µM,–
COC(C(=O)N/N=C(\C)CC(=O)Nc1ccc(N(C)C)cc1)c1ccccc1 (centres undefined),"inconclusive: 39.5 µM [inhibitor, single point]",–
COc1cc(CCC(=O)OCC(=O)Nc2ccc(C(N)=O)cc2)cc(OC)c1OC,"inconclusive: 39.8 µM [inhibitor, single point]",–
O=C1CCCC/C1=C/Nc1ccc2c(c1)OCO2,"inconclusive: 50.1 µM [inhibitor, single point]",–
Fc1ccc(Nc2c(-c3ccccn3)nc3ccc(Cl)cn23)cc1,"inconclusive: 1.12 µM [inhibitor, full curve]",–
Nc1nc[nH]c(=O)c1N=Cc1ccccc1,"inconclusive: 10 µM [inhibitor, partial curve]",–
CN(C)c1ccc(/C=N/Nc2cccc(C(=O)O)c2)cc1,"inconclusive: 44.7 µM [inhibitor, partial curve]",–
COc1ccc2c(c1)sc1nc(-c3ccccc3)cn12,inactive,–
COc1cc(OC)c(NC(=O)Cn2cnc3sc(C)c(S(=O)(=O)N4CCC(C)CC4)c3c2=O)cc1Cl,"inconclusive: 56.2 µM [inhibitor, partial curve, poor fit]",–
CCn1c(SC(C)C)nnc1-c1cc(-c2ccccc2)sc1N,"inconclusive: 15.8 µM [inhibitor, partial curve]",–
O=C(CN1CCN(S(=O)(=O)N2CCCCCC2)CC1)Nc1ccc(F)cc1,"inconclusive: 11.2 µM [inhibitor, single point]",–

SMILES,Potency,"activity change, negative = inhibition"
COC(=O)c1ccc(C2Nc3cccc4cccc(c34)N2)cc1,"inconclusive: 3.14 µM [inhibitor, full curve]",–
Cc1ccc(OCC(=O)NNC(=O)c2cccnc2)cc1,"inconclusive: 39.5 µM [inhibitor, partial curve]",–
CCN(CCS(=O)(=O)c1ccc(Cl)cc1)C(=O)Nc1ccc(Cl)cc1,"inconclusive: 50.1 µM [inhibitor, single point]",–
CC(=O)Nc1c(C(=O)O)[nH]c2ccccc12,inactive,–
CCOc1cc(C2C(C#N)=C(N)Oc3n[nH]c(-c4ccccc4)c32)ccc1O (centres undefined),"inconclusive: 2.8 µM [inhibitor, full curve]",–
CCc1cccc(CC)c1NC(=S)NCCc1ccc(O)c(O)c1,"inconclusive: 2.82 µM [inhibitor, full curve]",–
CC1=NN(c2nc(-c3ccc(C#N)cc3)cs2)C(=O)C1,"inconclusive: 12.5 µM [inhibitor, single point]",–
COCCCNC(=S)NNC(=O)c1ccc2c(c1)OCO2,"inconclusive: 28.2 µM [inhibitor, single point]",–
COc1ccc(Nc2nc(Nc3ccc(OC)cc3)nc(-n3[nH]c(=O)c(C)c3C)n2)cc1,"inconclusive: 50.1 µM [inhibitor, single point]",–
C=CCNC(=S)N1CCc2c([nH]c3ccccc23)C1C (centres undefined),"inconclusive: 11.1 µM [inhibitor, partial curve]",–
O=C1C(Cl)=C(Nc2ccccc2O)C(=O)N1c1ccccc1,"inconclusive: 8.84 µM [inhibitor, partial curve]",–
CCOC(=O)c1cnc(-n2nc(C)cc2C)nc1NNc1nc(C)cc(C)n1,"inconclusive: 6.31 µM [inhibitor, full curve]",–
O=C(CN1CCCCC1)NNc1nc(-c2ccccc2)c2cc(Cl)ccc2n1,"inconclusive: 20 µM [inhibitor, partial curve, poor fit]",–
N#Cc1nc(Cc2cccc3ccccc23)oc1NCc1ccc(F)cc1,"inconclusive: 25.1 µM [inhibitor, single point]",–
CC1=NN(C(N)=S)C(=O)C1N=Nc1ccc(O)cc1 (centres undefined),"inconclusive: 22.4 µM [inhibitor, partial curve]",–
CCc1nc2n[nH]c(N)c2c2c1CCCC2,"inconclusive: 28.2 µM [inhibitor, partial curve]",–
CCOC(=O)C(NC(=O)CC)(Nc1nc2c(s1)CCCC2)C(F)(F)F (centres undefined),"inconclusive: 50.1 µM [inhibitor, single point]",–
Cc1cccc2cc(C(c3nnnn3C(C)(C)C)N3CCN(C(=O)c4ccco4)CC3)c(=O)[nH]c12 (centres undefined),inactive,–
CC(/C=N/n1c(COc2ccccc2)n[nH]c1=S)=C\c1ccco1,"inconclusive: 31.4 µM [inhibitor, single point]",–
O=c1[nH][nH]c2cc(=O)n(-c3cccc(C(F)(F)F)c3)nc12,"inconclusive: 39.5 µM [inhibitor, single point]",–
NNC(=O)c1ccc(COc2cccc3ccccc23)cc1,"inconclusive: 31.4 µM [inhibitor, single point]",–
CC(C)(C)c1ccc(C(=O)NN2C(=O)CSC2=S)cc1,"inconclusive: 39.8 µM [inhibitor, single point]",–
Cc1ccc(-c2nc3cnccn3c2Nc2ccc3c(c2)OCCO3)o1,"inconclusive: 5.62 µM [inhibitor, full curve]",–

# — PubChem BioAssay AID2100 (National Center for Advancing Translational Sciences (NCATS), 2009)
